# Assay results taken from the BET-seq Pho4 binding data (Le et al. 2018).
# The list shows a part of the results. The energies were worked out here from pooled read counts, against the library average; single values are noisy.
# Biological target: T1, Pho4 (S. cerevisiae) (UniProt P07270)
# T1 sequence: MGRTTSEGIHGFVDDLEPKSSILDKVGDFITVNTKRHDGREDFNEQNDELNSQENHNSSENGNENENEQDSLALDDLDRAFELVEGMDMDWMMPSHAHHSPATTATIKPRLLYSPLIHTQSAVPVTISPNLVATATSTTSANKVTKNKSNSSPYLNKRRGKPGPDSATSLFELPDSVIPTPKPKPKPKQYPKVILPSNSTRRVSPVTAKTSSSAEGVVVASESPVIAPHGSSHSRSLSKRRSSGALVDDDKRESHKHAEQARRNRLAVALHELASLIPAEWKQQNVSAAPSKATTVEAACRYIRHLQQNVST
# Assay: relative binding free energy (BET-seq); higher = weaker binding
# Conditions: reference: library average
row,Sequence,relative binding free energy [kcal/mol]
1,AATTTCACGTGCGTGT,0.16
2,CGCTACACGTGTGGGT,0.09
3,ATTGTCACGTGAACAG,0.34
4,TGAAACACGTGTGTAT,0.2
5,TAATTCACGTGTGCGA,0.26
6,GCGTGCACGTGGAGCG,0.02
7,GTGAGCACGTGGTGAG,-0.15
8,AGGGGCACGTGGTCGT,-0.4
9,AGCGCCACGTGGGAGG,-0.2
10,ACGTCCACGTGTGTGT,0.05
11,GTTGGCACGTGCGCGT,-0.27
12,AGTATCACGTGCGATG,0.14
13,CCGGGCACGTGTGTGG,-0.04
14,TTTGTCACGTGCAGCT,-0.1
15,CGGTTCACGTGGCGGA,0.21
16,ACTTGCACGTGTTTGA,-0.01
17,GTGCGCACGTGTGGCG,0.02
18,GGATTCACGTGTGATG,0.47
19,TGTGTCACGTGCTGGC,-0.04
20,CTGGGCACGTGCCGGG,-0.38
21,GAATACACGTGTTGAT,0.18
22,GCGTGCACGTGGGGAA,-0.16
23,TGTGACACGTGTTTGG,0.1
24,GTTAGCACGTGTGGTT,0.08
25,AGTGTCACGTGAAATG,0.26

row,Sequence,relative binding free energy [kcal/mol]
1,GGAAACACGTGGTGGG,-0.01
2,TTCGTCACGTGGCTTA,0.06
3,ATATTCACGTGACTGG,0.34
4,GAGCACACGTGGGGAG,-0.05
5,CTATTCACGTGGATGG,0.28
6,ATGATCACGTGAGAGG,0.24
7,TGTATCACGTGACGTG,0.14
8,AATTGCACGTGTGAAT,0.18
9,GGAAACACGTGTTATG,0.06
10,TCTATCACGTGCGGTT,0.17
11,GGGATCACGTGAAGGA,0.21
12,AAGAACACGTGTGGGG,0.06
13,TCGGGCACGTGCTTGT,-0.2
14,TATGTCACGTGATACT,0.23
15,CTGGCCACGTGGTATG,-0.1
16,TGTCGCACGTGGTGTT,-0.25
17,GGATGCACGTGAATCG,0.4
18,GTTAGCACGTGGTGAA,-0.06
19,ATGGACACGTGAAGTT,0.3
20,TTTTGCACGTGTTACA,0.03
21,CTATGCACGTGTTTTG,-0.13
22,AAATTCACGTGTGGGT,0.24
23,TTTCACACGTGGGAAG,0
24,CATGTCACGTGTTTAA,0.13
25,GGGCGCACGTGGGGAA,-0.1

row,Sequence,relative binding free energy [kcal/mol]
1,TTGCTCACGTGTAGTG,0.2
2,ATCTACACGTGAGGTT,0.4
3,GTCTTCACGTGGTTGC,0.29
4,CGTGACACGTGTATGT,-0.16
5,GGTTGCACGTGGTAGC,0.08
6,GAGTTCACGTGGGGTC,0.32
7,CGTGCCACGTGTGTAG,-0.09
8,GGGGTCACGTGAAGCG,0.4
9,AGCGGCACGTGATGTA,-0.06
10,TGAGTCACGTGTGAAA,0.12
11,TGTGGCACGTGTTCAA,-0.15
12,TAGGGCACGTGTCAAG,-0.1
13,CGGGTCACGTGAAAGG,0.24
14,ATCTGCACGTGGTTTA,-0.07
15,TGGTACACGTGTGTGC,-0.01
16,TAGGTCACGTGACGTG,0.01
17,TGAGTCACGTGAAGAT,0.34
18,GGCTACACGTGTTGGT,0.18
19,TATAACACGTGGCGGG,-0.07
20,TAGCACACGTGGAGTT,0.13
21,CTTTGCACGTGTTTCG,-0.04
22,AGGGCCACGTGTTAGG,-0.17
23,GAAGTCACGTGGTCAT,0.14
24,TAGTTCACGTGAATTA,0.34
25,AGGGCCACGTGTCGGA,-0.06

row,Sequence,relative binding free energy [kcal/mol]
1,GCGAGCACGTGGGAGT,-0.09
2,CGTTACACGTGGTAGA,0.1
3,TAGCGCACGTGGCGGT,-0.26
4,TGTGTCACGTGGCGGC,-0.08
5,AATTACACGTGCTGGT,0.11
6,TATTTCACGTGTTGCG,0.3
7,TACGGCACGTGAGGGA,0.07
8,AAGGTCACGTGAGCGG,0.3
9,TTATTCACGTGATTCG,0.22
10,TCGTACACGTGGAGTT,0.18
11,AGAATCACGTGTAGTT,0.2
12,GGATGCACGTGTAATT,0.16
13,AATCTCACGTGTGGTT,0.31
14,AGTTTCACGTGATTCA,0.33
15,TTGTGCACGTGTATCG,-0.02
16,ATTAGCACGTGGTTAG,-0.07
17,TGGTTCACGTGTAATT,0.3
18,GTCGTCACGTGGGCGT,0.05
19,ATTCGCACGTGGAATG,0.06
20,TGGGCCACGTGCGATG,-0.07
21,GAATTCACGTGATAGG,0.38
22,CGGTGCACGTGAATTG,0.22
23,TATAACACGTGAGGGG,0.13
24,GTGCTCACGTGGTCTT,0.07
25,GGGGGCACGTGTATCA,-0.06

row,Sequence,relative binding free energy [kcal/mol]
1,ATTTGCACGTGTATGA,0.2
2,GGGTCCACGTGTATAT,0.09
3,TGATTCACGTGGTGGT,0.31
4,ATGGGCACGTGTTATC,-0.13
5,GGCAACACGTGAGGTT,0.27
6,TGTGCCACGTGGTGGC,-0.06
7,TACAACACGTGGTTGT,0.1
8,TTACTCACGTGGGTAG,0.07
9,ACGTGCACGTGATAGT,0.08
10,TTCTGCACGTGGATTA,-0.03
11,ATTGTCACGTGCATGT,0.07
12,TCTTGCACGTGGATTG,0.02
13,GTAATCACGTGGGGCT,0.04
14,TTACGCACGTGGGCGG,-0.26
15,AAAGGCACGTGTAGCG,0.09
16,ATGTGCACGTGACTTT,0.02
17,TATAGCACGTGTGGGG,0.01
18,GTCGACACGTGTTTTA,0.22
19,CATGTCACGTGCTTTG,0.14
20,CGTTGCACGTGGATTG,-0.1
21,GTCTTCACGTGGAGCG,0.34
22,TGGTCCACGTGGTATA,-0.01
23,TTTGACACGTGGTAGC,-0.11
24,GCTTGCACGTGGGTGG,-0.12
25,TTATGCACGTGCCTGG,-0.21

row,Sequence,relative binding free energy [kcal/mol]
1,AGAAGCACGTGAGTGG,0.19
2,CGTTCCACGTGGTCGG,0.1
3,TTGTCCACGTGGGAAG,0.07
4,TCAGTCACGTGGGAAT,0.13
5,GTAAACACGTGAGGCT,0.39
6,AGCTTCACGTGATGTG,0.34
7,GAGGGCACGTGCTTGG,0
8,CTTTGCACGTGAAAGG,0.26
9,TGAGTCACGTGATGGC,0.18
10,GTCGACACGTGTGAGT,0.02
11,TGTTCCACGTGTTAAA,0.22
12,TGGGCCACGTGGAGTG,-0.09
13,CTAGTCACGTGGTTGA,0.02
14,GGGGTCACGTGTCGTG,0.31
15,TCAATCACGTGGTTTA,0.09
16,TATGGCACGTGGATTA,-0.08
17,GTGTTCACGTGAACGG,0.35
18,ATCTTCACGTGTGCGG,0.19
19,TATAGCACGTGTGGAA,0
20,GAATTCACGTGTGGAT,0.23
21,TGGTACACGTGTCTGC,0.1
